In publication PMC4068158:
No constants are given. Whether binding was seen depends on the method and setting. In cells and extracts the contact can be indirect. Some results given as binding are weak or reduced against the parent protein; the word gives no strength. For some of these results: Tags and fused reporters may be left off the sequences shown.

Protein sequences, listed by entry. Tags and fused reporters are not part of them. Lines headed by an entry give the natural chain unless they say otherwise; changes in a name come on top.
UniProt O43681: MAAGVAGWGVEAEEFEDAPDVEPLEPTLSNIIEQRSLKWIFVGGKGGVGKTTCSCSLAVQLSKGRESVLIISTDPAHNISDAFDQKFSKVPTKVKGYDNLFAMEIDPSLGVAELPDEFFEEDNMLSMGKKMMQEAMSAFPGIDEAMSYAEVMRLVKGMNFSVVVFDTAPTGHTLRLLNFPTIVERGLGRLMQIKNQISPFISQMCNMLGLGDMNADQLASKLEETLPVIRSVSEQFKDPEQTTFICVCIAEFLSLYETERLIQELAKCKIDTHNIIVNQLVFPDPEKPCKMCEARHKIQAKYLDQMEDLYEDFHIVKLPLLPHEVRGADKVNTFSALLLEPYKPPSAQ
UniProt O95292: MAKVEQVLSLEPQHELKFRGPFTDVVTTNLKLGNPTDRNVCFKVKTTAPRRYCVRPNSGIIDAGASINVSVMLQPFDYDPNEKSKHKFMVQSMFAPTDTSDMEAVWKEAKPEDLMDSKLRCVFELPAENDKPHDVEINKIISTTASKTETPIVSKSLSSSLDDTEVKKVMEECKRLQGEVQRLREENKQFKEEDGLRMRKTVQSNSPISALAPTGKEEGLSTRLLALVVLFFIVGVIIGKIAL

Assays:
Flag-ASNA1 G46A (human) = Flag-ASNA1 G46A (human) (UniProt O43681); test: co-IP; anti-Flag beads on lysates of SH-SY5Y cells expressing wild-type or mutant Flag-ASNA1; cells treated with MG132 (untreated lanes beside them); immunoblot
Flag-ASNA1 G46R (human) = Flag-ASNA1 G46R (human) (UniProt O43681); test: as above
[1] = molecular target: Flag-ASNA1 wild type (human) (UniProt O43681); test: as above
[2] = molecular target: T1, Flag-RAB3GAP1 wild type (human) (UniProt Q15042); test: co-IP; anti-Flag M2 beads on lysates of U2OS cells expressing the Flag-tagged bait (transfected or tetracycline-induced); buffer A (50 mM HEPES/KOH pH 7.2, 5 mM Mg(OAc)2, 70 mM KOAc, 0.2% Triton X-100, 10% glycerol, 0.2 mM EDTA), 4°C, 2 hr; endogenous prey by immunoblot; cells untreated, treated with MG132 or with siRNA (FAF1, p97, ASNA1, luciferase) as indicated
T1 sequence: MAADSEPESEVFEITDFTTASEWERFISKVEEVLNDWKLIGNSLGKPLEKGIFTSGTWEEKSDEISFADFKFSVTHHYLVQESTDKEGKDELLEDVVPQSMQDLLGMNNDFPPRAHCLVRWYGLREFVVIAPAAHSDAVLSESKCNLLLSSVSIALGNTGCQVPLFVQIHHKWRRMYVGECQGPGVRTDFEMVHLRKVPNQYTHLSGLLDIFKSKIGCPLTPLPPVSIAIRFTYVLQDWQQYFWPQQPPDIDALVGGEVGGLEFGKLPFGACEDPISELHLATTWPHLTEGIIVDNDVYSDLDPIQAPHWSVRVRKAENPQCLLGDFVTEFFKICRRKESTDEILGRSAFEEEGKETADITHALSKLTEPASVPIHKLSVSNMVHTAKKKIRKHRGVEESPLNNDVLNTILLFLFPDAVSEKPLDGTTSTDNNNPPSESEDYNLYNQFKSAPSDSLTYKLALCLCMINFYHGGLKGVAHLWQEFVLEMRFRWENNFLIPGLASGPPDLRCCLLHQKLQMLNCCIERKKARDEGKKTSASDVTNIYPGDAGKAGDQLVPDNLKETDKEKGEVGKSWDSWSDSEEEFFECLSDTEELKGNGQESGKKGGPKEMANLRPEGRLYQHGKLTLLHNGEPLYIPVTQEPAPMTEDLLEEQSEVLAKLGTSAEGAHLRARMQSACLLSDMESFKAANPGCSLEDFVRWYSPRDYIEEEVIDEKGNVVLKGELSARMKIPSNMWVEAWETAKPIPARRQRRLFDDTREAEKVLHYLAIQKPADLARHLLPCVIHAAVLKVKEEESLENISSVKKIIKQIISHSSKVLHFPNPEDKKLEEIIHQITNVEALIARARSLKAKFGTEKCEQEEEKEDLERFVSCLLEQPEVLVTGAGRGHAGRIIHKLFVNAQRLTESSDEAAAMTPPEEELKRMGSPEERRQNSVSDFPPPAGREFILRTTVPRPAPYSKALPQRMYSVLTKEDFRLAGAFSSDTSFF

Measured: binding

endogenous VAPB (human cells) (from UniProt O95292 1-243)
binds: all assays above
